# Source: PubChem BioAssay (NCI)
#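 Step 1: Grow cells in 96-well plates. Step 2: Expose to compound for 48 hours at 5 concentrations. Step 3: Interpolate endpoints linearly; if unreached, use highest concentration. GI50 = concentration required for 50% inhibition of growth. The concentration for full growth arrest is given as TGI.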
# Test system: NCI-H322M lung
# Assay: inhibition of tumour cell growth, NCI panel, 48 h
Compound,TGI [µM],GI50 [nM]
Cc1ccccc1NC(=O)C(=O)C(c1cnc2ccc([N+](=O)[O-])cc2n1)[N+](=O)[O-] (stereo unspecified),> 100,
OC(c1cccnc1)C(F)(F)c1nc2ccccc2o1 (stereo unspecified),> 100,
COC(=O)CCC(NC(=O)C(C)NC(=O)COC1C(O)C(OC(=O)CCNc2c3ccccc3nc3cccc([N+](=O)[O-])c23)OC(OCc2ccccc2)C1NC(C)=O)C(N)=O (stereo unspecified),> 10,
COC(=O)C1C(O)CCC2CN3CCc4c([nH]c5cccc(OC)c45)C3CC21 (stereo unspecified),> 100,
O=C(O)CC(Nc1ccccc1)C(=O)O (stereo unspecified),> 100,
NNC(=O)c1ccccc1Nc1ccccc1C(=O)NN,> 100,
COc1cc2nc(Sc3c([N+](=O)[O-])ncn3C)[nH]c2cc1OC,> 100,
CCCc1cc2cc(-n3nc(C)c4c3CC(C)(C)CC4=O)cc(NC3CCC(O)CC3)c2c(=O)[nH]1 (stereo unspecified),> 100,1190
CCc1ccc(Nc2cc(=O)[nH]c(SCc3ccccc3)n2)cc1,> 100,
O=c1c2cc([N+](=O)[O-])ccc2n(Cc2ccccc2)n1Cc1ccccc1,> 31.6,
Oc1ccc(CNCc2ccccc2)c2cccnc12,97.7,
C[C@]12CC[C@@H]3c4ccccc4CC[C@H]3[C@@H]1CC[C@@H]2O,> 100,
CC1=NN(C(=O)CC(=O)Nc2ccccc2Cl)C(=O)C1N=Nc1ccc(C(=O)O)cc1 (stereo unspecified),> 100,
O=C(/C=C\c1cccc2ccccc12)c1cccs1,28.7,
CCOC(=O)C(NC(=O)c1ccccc1)(Nc1ccc(S(=O)(=O)Nc2nc(C)cc(C)n2)cc1)C(F)(F)F (stereo unspecified),> 100,
CN(c1ccccc1)S(=O)(=O)c1ccccc1[N+](=O)[O-],> 100,
ClCc1ccc(-c2ccc(Cn3cnc4c(Cl)nc(Cl)nc43)cc2)cc1,18.7,6200
Nc1ncnc2c1nc(-c1ccccc1)n2C1OC(CO)C(O)C1O (stereo unspecified),> 100,
NC1=C(Cl)C(=O)c2ccc(S(N)(=O)=O)cc2C1=O,3.33,1870
Nc1cc2c3c(cccc3c1)C(=O)N(c1ccc(OCCN3CCCCC3)cc1)C2=O,41.2,

Compound,TGI [µM],GI50 [nM]
O=[N+]([O-])c1ccc2c(c1)c(N=NC(=S)NC1CCCCC1)c(O)n2CN1CCOCC1,22,
COC1C=CC(C(=O)[N+]2=Cc3[nH]c4ccccc4c3CC2)O1 (stereo unspecified),> 100,
Cn1c(=O)[nH]c2[nH]c3ccccc3c2c1=O,> 100,
C/C(=N\NC(=O)c1cccnc1)c1cccc(/C(C)=N/NC(=O)c2cccnc2)n1,> 100,
O=C(O)C(Cc1c[nH]c2ccccc12)N=Cc1nc(-c2ccccc2)oc1O (stereo unspecified),> 100,
CN1C2CCC1C(C(O)c1ccccc1[N+](=O)[O-])C(=O)C2 (stereo unspecified),> 100,
COC(=O)C[C@@H]1C(C)(C)[C@@H]2O[C@@]34C[C@@H]2C(=O)[C@]1(C)[C@H]3CC[C@@]1(C)[C@H](c2ccoc2)OC(=O)C[C@]14O,> 100,
Cc1oc2c(C)c(O)c3c(c2c1C1(C)OCCO1)C(=O)C=C(Cl)C3=O,> 100,
CC(C)NCC(O)COC(=O)c1cccs1 (stereo unspecified),> 100,
Nc1nc(Nc2ccccc2)sc1C(=O)c1ccc(Cl)cc1,> 100,
C=C1C(=O)O[C@H]2[C@H]1CC/C(Cn1cc(Cn3ccc4ccccc43)nn1)=C\CC[C@@]1(C)O[C@@H]21,26.1,13300
COc1cc(-c2cc(=O)c3ccccc3o2)ccc1N,> 100,
N=C1N(c2ccccc2)C(=O)C23CCCC2C13N1CCOCC1 (stereo unspecified),> 100,
O=S(=O)(N=S(c1ccc(Cl)cc1)c1ccc(Cl)cc1)c1ccccc1,> 100,
Cc1cc2c(c(C=Nc3ccc([N+](=O)[O-])cc3)c1)OC1(C=C2)Oc2ccccc2C(=O)N1C (stereo unspecified),36.1,
CCCCCCCC/C=C/CCCCCCCC1=NC(C)(C)CN1C(C)C,2.77,1460
C[C@@H](CO)OCOCc1ccccc1,> 100,
CS(=O)(=O)c1nc(-c2cc3c(c(S(C)(=O)=O)n2)CCCC3)cc2c1CCCC2,> 100,
COc1[nH]c(C(Cl)(Cl)Cl)c(Cl)c(=O)c1Cl,> 100,
C=C1C(=O)O[C@H]2[C@H]1CC/C(COC(=O)CCCCCCCCC(=O)OC/C1=C/CC[C@@]3(C)O[C@H]3[C@H]3OC(=O)C(=C)[C@@H]3CC1)=C\CC[C@@]1(C)O[C@@H]21,10.6,2810
